In the supplement of paper PMC12067230:
This is a noisy data set.
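Note: [psi-pin-] Saccharomyces cerevisiae expressing SupN fusions, induced by 100 µM Cu2SO4, selected 7 d at 30 °C without adenine and uracil, scored by deep sequencing of output versus input.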

Assay: amyloid nucleation score relative to library mode (yeast Sup35 reporter selection) (log enrichment difference); higher = more amyloid nucleation; sequences are the first 22 residues of the Bri2 peptide extended by up to 12 random residues
Details: random library (experiment): 1;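 active = nucleation score significantly above 0 at FDR 0.05; inactive = not significantly above 0 or absent from output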
With EASNCFAIRHFENKFAVETLICQMGSGPKLRHLS the amyloid nucleation score was “inactive”.
With EASNCFAIRHFENKFAVETLICLVWCARGVRAWE the amyloid nucleation score was “inactive”.
Work on EASNCFAIRHFENKFAVETLICENFFIVVEACWH yielded an amyloid nucleation score of 4.41.
In the case of EASNCFAIRHFENKFAVETLICMLLLFECACHPR, the amyloid nucleation score is reported as “inactive”.
For EASNCFAIRHFENKFAVETLICMPIRVRLMVLVL, the amyloid nucleation score was “inactive”.
For EASNCFAIRHFENKFAVETLICGPRCQMGGMLGI, the amyloid nucleation score was “inactive”.
EASNCFAIRHFENKFAVETLICLWW gave an amyloid nucleation score of 4.2.
For EASNCFAIRHFENKFAVETLICAEVAKFEACHGM, the amyloid nucleation score was “inactive”.
For EASNCFAIRHFENKFAVETLICTAMGFGTNQCSS, the amyloid nucleation score was “inactive”.
With EASNCFAIRHFENKFAVETLICAT the amyloid nucleation score was “inactive”.
With EASNCFAIRHFENKFAVETLICPLTRGFKAMRCG the amyloid nucleation score was “inactive”.
EASNCFAIRHFENKFAVETLICFAMLCWYWPSPS showed an amyloid nucleation score of -0.392.
In the case of EASNCFAIRHFENKFAVETLICNVSVPNMVKSV, the amyloid nucleation score is reported as “inactive”.
For EASNCFAIRHFENKFAVETLICASATSMQIMRRW, the amyloid nucleation score was “inactive”.
With EASNCFAIRHFENKFAVETLICRPLVAFVMDIGS the amyloid nucleation score was “inactive”.
EASNCFAIRHFENKFAVETLICGVWRSLRQGRWE showed an amyloid nucleation score of 2.64.
With EASNCFAIRHFENKFAVETLICAWSRSPWSQALR the amyloid nucleation score was “inactive”.
EASNCFAIRHFENKFAVETLICFIPFWCICLSSR gave an amyloid nucleation score of -0.273.
In the case of EASNCFAIRHFENKFAVETLICESLRHGLAFVVS, the amyloid nucleation score is reported as “inactive”.
In the case of EASNCFAIRHFENKFAVETLICAFLSVVSRSCKV, the amyloid nucleation score is reported as “inactive”.
For EASNCFAIRHFENKFAVETLICVVSSLVYMTDSV, the amyloid nucleation score was “inactive”.
In the case of EASNCFAIRHFENKFAVETLICGSVGDDG, the amyloid nucleation score is reported as “inactive”.
For EASNCFAIRHFENKFAVETLICYANVVRE, the amyloid nucleation score was 5.73.
In the case of EASNCFAIRHFENKFAVETLICHV, the amyloid nucleation score is reported as “inactive”.
In the case of EASNCFAIRHFENKFAVETLICVHRDVLPYAGVG, the amyloid nucleation score is reported as “inactive”.
EASNCFAIRHFENKFAVETLICFWTTNVNAMDAW gave an amyloid nucleation score of 0.294.
For EASNCFAIRHFENKFAVETLICGDGFRTLLSGTV, the amyloid nucleation score was “inactive”.
For EASNCFAIRHFENKFAVETLICVCRKSIGFSLWR, the amyloid nucleation score was “inactive”.
For EASNCFAIRHFENKFAVETLICCGV, the amyloid nucleation score was 4.1.
In the case of EASNCFAIRHFENKFAVETLICDSSRVVVCETML, the amyloid nucleation score is reported as “inactive”.
With EASNCFAIRHFENKFAVETLICTIGFAGPGACMS the amyloid nucleation score was 5.1.
EASNCFAIRHFENKFAVETLICRRVKHNREAYTR showed an amyloid nucleation score of 0.0924.
Sequence EASNCFAIRHFENKFAVETLICFDQCEESAYIKP has an amyloid nucleation score of 1.68.
With EASNCFAIRHFENKFAVETLICRVRCTSGMSRGL the amyloid nucleation score was “inactive”.
With EASNCFAIRHFENKFAVETLICLLRTKFMFQPIR the amyloid nucleation score was “inactive”.
EASNCFAIRHFENKFAVETLICLI gave an amyloid nucleation score of 6.52.
EASNCFAIRHFENKFAVETLICIVFRTGKSKQLR gave an amyloid nucleation score of 2.36.
For EASNCFAIRHFENKFAVETLICGSNMRGSVQFEC, the amyloid nucleation score was -0.211.
With EASNCFAIRHFENKFAVETLICMLR the amyloid nucleation score was 3.29.
In the case of EASNCFAIRHFENKFAVETLICVGEQRYHSLLLA, the amyloid nucleation score is reported as “inactive”.
For EASNCFAIRHFENKFAVETLICCAQKCDWSSPAG, the amyloid nucleation score was 6.93.
In the case of EASNCFAIRHFENKFAVETLICIEHSLTSLTRII, the amyloid nucleation score is reported as “inactive”.
With EASNCFAIRHFENKFAVETLICPRLNSRHVRNRL the amyloid nucleation score was “inactive”.
With EASNCFAIRHFENKFAVETLICGLCFFYWIQVYP the amyloid nucleation score was “inactive”.
EASNCFAIRHFENKFAVETLICQCNKVCVWDFRW showed an amyloid nucleation score of 5.82.
With EASNCFAIRHFENKFAVETLICRLTYDTWPLIDG the amyloid nucleation score was “inactive”.
EASNCFAIRHFENKFAVETLICHW showed an amyloid nucleation score of 5.45.
In the case of EASNCFAIRHFENKFAVETLICLHSPGSLFEVVV, the amyloid nucleation score is reported as “inactive”.
With EASNCFAIRHFENKFAVETLICAARVGATVIGGS the amyloid nucleation score was “inactive”.
In the case of EASNCFAIRHFENKFAVETLICVKSTRNADDGYQ, the amyloid nucleation score is reported as 0.153.
With EASNCFAIRHFENKFAVETLICTAIEVQSVMRWG the amyloid nucleation score was “inactive”.
For EASNCFAIRHFENKFAVETLICASEAASQERGVY, the amyloid nucleation score was “inactive”.
EASNCFAIRHFENKFAVETLICHFGCCFLASHFS gave an amyloid nucleation score of 7.73.
With EASNCFAIRHFENKFAVETLICVSVDSCLPGCGH the amyloid nucleation score was 6.08.
Work on EASNCFAIRHFENKFAVETLICVSKWSSNLVSRR yielded an amyloid nucleation score of 2.92.
EASNCFAIRHFENKFAVETLICCVWSWSACNLVL gave an amyloid nucleation score of 5.75.

Same assay, conditions: random library (experiment): 2
EASNCFAIRHFENKFAVETLICKMKPRYRCYVYV showed an amyloid nucleation score of 0.879.
With EASNCFAIRHFENKFAVETLICLSQVLVGVIIWT the amyloid nucleation score was “inactive”.
With EASNCFAIRHFENKFAVETLICFHLCSCWDWLSH the amyloid nucleation score was 7.48.
In the case of EASNCFAIRHFENKFAVETLICRVSCLGTLPNNR, the amyloid nucleation score is reported as 1.8.
In the case of EASNCFAIRHFENKFAVETLICTYEVTFYPITAR, the amyloid nucleation score is reported as “inactive”.
For EASNCFAIRHFENKFAVETLICPNESRGNVFVF, the amyloid nucleation score was “inactive”.
For EASNCFAIRHFENKFAVETLICLMFHLY, the amyloid nucleation score was “inactive”.
For EASNCFAIRHFENKFAVETLICVCHSLMD, the amyloid nucleation score was 6.06.
For EASNCFAIRHFENKFAVETLICMDVCLWFRWYVS, the amyloid nucleation score was “inactive”.
EASNCFAIRHFENKFAVETLICFAFVYHFWGFYS gave an amyloid nucleation score of -0.278.
EASNCFAIRHFENKFAVETLICMFWFYWTMFFES showed an amyloid nucleation score of -0.191.
EASNCFAIRHFENKFAVETLICTFLMFN showed an amyloid nucleation score of 1.08.
With EASNCFAIRHFENKFAVETLICGRMLRRVEYTLL the amyloid nucleation score was “inactive”.
With EASNCFAIRHFENKFAVETLICASVLFHEYAFDS the amyloid nucleation score was 3.18.
For EASNCFAIRHFENKFAVETLICFSCRDR, the amyloid nucleation score was 8.
For EASNCFAIRHFENKFAVETLICGLLSII, the amyloid nucleation score was 5.2.
In the case of EASNCFAIRHFENKFAVETLICQSRYNYCWTIRR, the amyloid nucleation score is reported as “inactive”.
In the case of EASNCFAIRHFENKFAVETLICMFWFDTLCCMWK, the amyloid nucleation score is reported as 1.51.
In the case of EASNCFAIRHFENKFAVETLICNVVMRREMGYWW, the amyloid nucleation score is reported as “inactive”.
With EASNCFAIRHFENKFAVETLICVLSLLTWFEFTG the amyloid nucleation score was 3.49.
In the case of EASNCFAIRHFENKFAVETLICRMWM, the amyloid nucleation score is reported as “inactive”.
In the case of EASNCFAIRHFENKFAVETLICFPVALCRFTSSY, the amyloid nucleation score is reported as “inactive”.
For EASNCFAIRHFENKFAVETLICYTNGRLKVKFCS, the amyloid nucleation score was “inactive”.
In the case of EASNCFAIRHFENKFAVETLICVIMWNIEPCRLL, the amyloid nucleation score is reported as “inactive”.
Sequence EASNCFAIRHFENKFAVETLICVIGNWYLWASNA has an amyloid nucleation score of 2.95.
EASNCFAIRHFENKFAVETLICAQFKNKYEGRFE gave an amyloid nucleation score of 0.598.
For EASNCFAIRHFENKFAVETLICVLGSSCTLYRSL, the amyloid nucleation score was 5.43.
With EASNCFAIRHFENKFAVETLICWKSWI the amyloid nucleation score was “inactive”.
For EASNCFAIRHFENKFAVETLICIHVDLPSRFGCE, the amyloid nucleation score was 4.55.
Sequence EASNCFAIRHFENKFAVETLICYPHKLCFTSKGE has an amyloid nucleation score of 3.23.
Work on EASNCFAIRHFENKFAVETLICHFYMVSCSRFDV yielded an amyloid nucleation score of 2.09.
Sequence EASNCFAIRHFENKFAVETLICCLGTEGRGGGVL has an amyloid nucleation score of 5.86.
In the case of EASNCFAIRHFENKFAVETLICFYYGMESILMAS, the amyloid nucleation score is reported as “inactive”.
In the case of EASNCFAIRHFENKFAVETLICRNKTAFLVCGT, the amyloid nucleation score is reported as “inactive”.
EASNCFAIRHFENKFAVETLICGRCIGMWPNGTG gave an amyloid nucleation score of 2.01.
With EASNCFAIRHFENKFAVETLICLGIAK the amyloid nucleation score was “inactive”.
In the case of EASNCFAIRHFENKFAVETLICAHFTKTFTDFRG, the amyloid nucleation score is reported as 3.49.
In the case of EASNCFAIRHFENKFAVETLICCLVNRYWVVFRR, the amyloid nucleation score is reported as “inactive”.
For EASNCFAIRHFENKFAVETLICYFGMRCVMSGIT, the amyloid nucleation score was “inactive”.
With EASNCFAIRHFENKFAVETLICNQTFRRRYCIVR the amyloid nucleation score was -0.365.
With EASNCFAIRHFENKFAVETLICVRLRSKA the amyloid nucleation score was “inactive”.
With EASNCFAIRHFENKFAVETLICVSTD the amyloid nucleation score was “inactive”.

Same assay, conditions: random library (experiment): 3
EASNCFAIRHFENKFAVETLICYW showed an amyloid nucleation score of 5.74.
With EASNCFAIRHFENKFAVETLICRMIPCARTVWRA the amyloid nucleation score was “inactive”.
In the case of EASNCFAIRHFENKFAVETLICGMGDPKKEESTC, the amyloid nucleation score is reported as “inactive”.
With EASNCFAIRHFENKFAVETLICYAR the amyloid nucleation score was “inactive”.
With EASNCFAIRHFENKFAVETLICPCGTGPDRQIVQ the amyloid nucleation score was 5.37.
Work on EASNCFAIRHFENKFAVETLICYHGHLLIHLGTR yielded an amyloid nucleation score of 3.27.
Sequence EASNCFAIRHFENKFAVETLICVLMPGCRGSGTE has an amyloid nucleation score of 7.38.
With EASNCFAIRHFENKFAVETLICRTMMGCW the amyloid nucleation score was “inactive”.
With EASNCFAIRHFENKFAVETLICRPWTS the amyloid nucleation score was “inactive”.
EASNCFAIRHFENKFAVETLICHLQPCGEVGWYG showed an amyloid nucleation score of 5.63.
EASNCFAIRHFENKFAVETLICVFGPPSALRPQA showed an amyloid nucleation score of 5.81.
EASNCFAIRHFENKFAVETLICFYLS showed an amyloid nucleation score of 4.87.
Sequence EASNCFAIRHFENKFAVETLICYSPLMSCCFLLY has an amyloid nucleation score of 6.28.
For EASNCFAIRHFENKFAVETLICGATAKVIVSGYE, the amyloid nucleation score was “inactive”.
For EASNCFAIRHFENKFAVETLICEPMANNLMGK, the amyloid nucleation score was “inactive”.
In the case of EASNCFAIRHFENKFAVETLICQVMYPVESCVVI, the amyloid nucleation score is reported as “inactive”.
In the case of EASNCFAIRHFENKFAVETLICHDPSGVSGKGNQ, the amyloid nucleation score is reported as “inactive”.
Work on EASNCFAIRHFENKFAVETLICLGHSTNLECSIY yielded an amyloid nucleation score of 6.
In the case of EASNCFAIRHFENKFAVETLICPMRYTVVALIK, the amyloid nucleation score is reported as “inactive”.
In the case of EASNCFAIRHFENKFAVETLICVVSEWLRSSVCG, the amyloid nucleation score is reported as “inactive”.
For EASNCFAIRHFENKFAVETLICMVV, the amyloid nucleation score was “inactive”.
For EASNCFAIRHFENKFAVETLICVAPRDAFWSVLE, the amyloid nucleation score was “inactive”.
